{"source": "patent US6475985B1", "about": "“Nucleosides with antiviral and anticancer activity” (priority 1998, dated 2002)", "key": {"MCF-7 cells [1]": {"system": "MCF-7 cells", "assay": "Test E: growth inhibitory activity in MCF-7 cells in culture", "type": "cell-based", "details": "48 hours, trypan-blue exclusion", "experimental": "Representative compounds of the invention were evaluated for growth inhibitory activity in MCF-7 cells in culture. […] Typically, 24-well and 6-well plates were used to culture 25,000-100,000 and 200,000-500,000 cells, respectively."}, "[2]": {"system": "HIV (antiviral activity in PBMC's)", "assay": "Test B: antiviral activity in PBMC's", "type": "cell-based", "text": "The antiviral properties of compounds of the invention can also be determined in PBMCs using a procedure similar to that described by E. I. McIntee, et al. J. Med. Chem., 1997, 40, 3323-3331."}, "[3]": {"system": "MCF-7 breast cancer cells", "assay": "Test G: activity against MCF-7 breast cancer cells", "type": "cell-based", "experimental": "(§1) The activity of representative compounds of formula VII against MCF-7 breast cancer cells and CEM T-cell leukemia cells were determined using a procedure similar to that described by C. R. Wagner, et al. Cancer Research, 1997, 57, 2341-2345."}, "[4]": {"system": "CEM T-cell leukemia cells", "assay": "Test G: activity against CEM T-cell leukemia cells", "type": "cell-based", "experimental": "as §1"}, "Log P": {"assay": "Log P", "type": "physicochemical"}, "MCF-7 cells [5]": {"system": "MCF-7 cells", "assay": "Test C: cytotoxicity in MCF-7 breast cancer cells", "details": "read-out: CC50 MCF-7 cells; Table 3"}, "MCF-7 cells [6]": {"system": "MCF-7 cells"}, "[7]": {"details": "Donor 1, read-out: IC50 PBMC's Donor 1"}, "[8]": {"details": "Donor 2, read-out: IC50 PBMC's Donor 2"}}, "note": "Like-named read-outs stand apart in the source and are kept apart here.", "data": [{"molecule": "COC(=O)[C@H](Cc1c[nH]c2ccccc12)NP(=O)(O)OC[C@H]1O[C@@H](n2cc(C)c(=O)[nH]c2=O)C[C@@H]1N=[N+]=[N-]", "note": "[Compound 9, 3-Azido-3-deoxythymidine-5-methoxy-L-trytophanyl-phosphoramidate]", "values": [{"measurement": "CC50", "setting": "MCF-7 cells [1]", "value": 30, "unit": "nM"}]}, {"molecule": "CNC(=O)[C@@H](Cc1c[nH]c2ccccc12)NP(=O)(O)OC[C@H]1O[C@@H](n2cc(C)c(=O)[nH]c2=O)C[C@@H]1N=[N+]=[N-]", "note": "[Compound 31, 3′-Azido-3′-deoxythymidine-5′-methylamino-D-tryptophanylphosphoramidate]", "values": [{"measurement": "IC50", "setting": "[2]; [7]", "value": 400, "unit": "nM"}, {"measurement": "IC50", "setting": "[2]; [8]", "value": 180, "unit": "nM"}, {"measurement": "CC50", "setting": "MCF-7 cells [1]", "value": "> 100000", "unit": "nM"}]}, {"molecule": "COC(=O)CNP(=O)(O)OC[C@H]1O[C@@H](n2cc(C)c(=O)[nH]c2=O)C[C@@H]1N=[N+]=[N-]", "note": "[Compound 17, 3′-Azido-3′-deoxythymidine-5′-methoxyglycinyl phosphoramidate]", "values": [{"measurement": "CC50", "setting": "MCF-7 cells [1]", "value": "> 100000", "unit": "nM"}]}, {"molecule": "COC(=O)[C@H](Cc1ccccc1)NP(=O)(O)OC[C@H]1O[C@@H](n2cc(F)c(=O)[nH]c2=O)C[C@@H]1O", "note": "[Compound 36, 5-fluoro-2′deoxy-5′-uridyl N-((L)-1-carbomethoxy-2-phenylethyl)phosphoramidate]", "values": [{"measurement": "CC50", "setting": "[3]", "value": 45, "unit": "nM"}, {"measurement": "CC50", "setting": "[4]", "value": 320, "unit": "nM"}, {"measurement": "Half-life Cell Media 37 C", "value": ">48", "unit": "h"}]}, {"molecule": "Cc1cn([C@H]2C[C@H](N=[N+]=[N-])[C@@H](CO)O2)c(=O)[nH]c1=O", "note": "[AZT, reference compound]", "values": [{"measurement": "IC50", "setting": "[2]; [7]", "value": 3, "unit": "nM"}, {"measurement": "IC50", "setting": "[2]; [8]", "value": 10, "unit": "nM"}, {"measurement": "Log P", "setting": "Log P", "value": 0.1244}, {"measurement": "CC50", "setting": "MCF-7 cells [1]", "value": 8, "unit": "nM"}]}, {"molecule": "COC(=O)[C@H](C)NP(=O)(O)OC[C@H]1O[C@@H](n2cc(C)c(=O)[nH]c2=O)C[C@@H]1N=[N+]=[N-]", "note": "[Compound 19, 3′-Azido-3′-deoxythymidine-5′-methoxy-L-alaninylphosphoramidate]", "values": [{"measurement": "CC50", "setting": "MCF-7 cells [1]", "value": 6000, "unit": "nM"}]}, {"molecule": "CNC(=O)[C@H](Cc1c[nH]c2ccccc12)NP(=O)(O)OC[C@H]1O[C@@H](n2cc(C)c(=O)[nH]c2=O)C[C@@H]1N=[N+]=[N-]", "note": "[Compound 30, 3′-Azido-3′-deoxythymidine-5′-methylamino-L-tryptophanylphosphoramidate]", "values": [{"measurement": "IC50", "setting": "[2]; [7]", "value": 700, "unit": "nM"}, {"measurement": "IC50", "setting": "[2]; [8]", "value": 1800, "unit": "nM"}, {"measurement": "CC50", "setting": "MCF-7 cells [1]", "value": 25, "unit": "nM"}]}, {"molecule": "CNC(=O)[C@H](Cc1ccccc1)NP(=O)(O)OC[C@H]1O[C@@H](n2cc(C)c(=O)[nH]c2=O)C[C@@H]1N=[N+]=[N-]", "note": "[Compound 27, 3′-Azido-3′-deoxythymidine-5′-methylamino-L-phenylalaninylphosphoramidate]", "values": [{"measurement": "IC50", "setting": "[2]; [7]", "value": 180, "unit": "nM"}, {"measurement": "IC50", "setting": "[2]; [8]", "value": 250, "unit": "nM"}, {"measurement": "CC50", "setting": "MCF-7 cells [1]", "value": 1500, "unit": "nM"}]}, {"molecule": "COC(=O)[C@@H](Cc1ccccc1)NP(=O)(O)OC[C@H]1O[C@@H](n2cc(F)c(=O)[nH]c2=O)C[C@@H]1O", "note": "[Compound 39, 5-fluoro-2′deoxy-5′-uridyl N-((D)-1-carbomethoxy-2-phenylethyl)phosphoramidate]", "values": [{"measurement": "CC50", "setting": "[3]", "value": "> 100000", "unit": "nM"}]}, {"molecule": "3′-Azido-3′-deoxythymidine-5′-methoxy-L-leucinylphosphoramidate [Compound 21]", "values": [{"measurement": "CC50", "setting": "MCF-7 cells [1]", "value": "> 100000", "unit": "nM"}]}, {"molecule": "Cc1cn([C@H]2C[C@H](N=[N+]=[N-])[C@@H](COP(=O)(O)N[C@@H](Cc3c[nH]c4ccccc34)C(=O)NC3CCCCC3)O2)c(=O)[nH]c1=O", "note": "[Compound 35, 3′-Azido-3′-deoxythymidine-5′-cyclohexylamino-L-tryptophanylphosphoramidate]", "values": [{"measurement": "CC50", "setting": "MCF-7 cells [1]", "value": 7500, "unit": "nM"}]}, {"molecule": "O=c1[nH]cc(F)c(=O)[nH]1", "note": "[FU, 5-fluorouracil, reference compound]", "values": [{"measurement": "CC50", "setting": "[3]; Homo sapiens, MCF7", "value": 1600, "unit": "nM"}, {"measurement": "CC50", "setting": "[4]; T-cell", "value": 3700, "unit": "nM"}]}, {"molecule": "COC(=O)[C@H](Cc1ccccc1)NP(=O)(O)OC[C@H]1O[C@@H](n2cc(C)c(=O)[nH]c2=O)C[C@@H]1N=[N+]=[N-]", "note": "[Compound 11, 3-Azido-3-deoxythymidine-5-methoxy-L-phenylalaninylphosphoramidate]", "values": [{"measurement": "Log P", "setting": "Log P", "value": "−2.4209"}, {"measurement": "CC50", "setting": "MCF-7 cells [1]", "value": 400, "unit": "nM"}, {"measurement": "CC50", "setting": "MCF-7 cells [5]", "value": 400, "unit": "nM"}]}, {"molecule": "COC(=O)[C@@H](Cc1ccccc1)NP(=O)(O)OCC1OC(n2cc(C)c(=O)[nH]c2=O)CC1N=[N+]=[N-]", "note": "(stereo partly drawn) [Compound 12, 3-Azido-3-deoxythymidine-5-methoxy-D-phenylalaninylphosphoramidate]", "values": [{"measurement": "CC50", "setting": "MCF-7 cells [1]", "value": "> 100000", "unit": "nM"}]}, {"molecule": "CNC(=O)[C@@H](Cc1ccccc1)NP(=O)(O)OC[C@H]1O[C@@H](n2cc(C)c(=O)[nH]c2=O)C[C@@H]1N=[N+]=[N-]", "note": "[Compound 28, 3′-Azido-3′-deoxythymidine-5′-methylamino-D-phenylalaninylphosphoramidate]", "values": [{"measurement": "IC50", "setting": "[2]; [7]", "value": 900, "unit": "nM"}, {"measurement": "IC50", "setting": "[2]; [8]", "value": 100, "unit": "nM"}, {"measurement": "CC50", "setting": "MCF-7 cells [1]", "value": "> 100000", "unit": "nM"}]}, {"molecule": "COC(=O)[C@@H](NP(=O)(O)OC[C@H]1O[C@@H](n2cc(C)c(=O)[nH]c2=O)C[C@@H]1N=[N+]=[N-])C(C)C", "note": "[Compound 20, 3′-Azido-3′-deoxythymidine-5′-methoxy-L-valinylphosphoramidate]", "values": [{"measurement": "CC50", "setting": "MCF-7 cells [1]", "value": 7500, "unit": "nM"}]}, {"molecule": "COC(=O)[C@@H](Cc1c[nH]c2ccccc12)NP(=O)(O)OC[C@H]1O[C@@H](n2cc(C)c(=O)[nH]c2=O)C[C@@H]1N=[N+]=[N-]", "note": "[Compound 10, 3-Azido-3-deoxythymidine-5-methoxy-D-trytophanyl-phosphoramidate]", "values": [{"measurement": "CC50", "setting": "MCF-7 cells [1]", "value": "> 100000", "unit": "nM"}, {"measurement": "CC50", "setting": "MCF-7 cells [6]", "value": "> 100000", "unit": "nM"}]}]}
